In all, about 390,000 compounds went through this assay and about 17,000 (4.4%) were called active. Calls come from the whole dose curve; as a rule, active = well fitted inhibition curve with a large enough effect; inconclusive = small, poorly fitted or top-dose-only effect; inactive = no such curve, though single readings can be large or run the other way. Inconclusive results, whose numbers are uncertain, are shown. A potency beside an inconclusive call is a rough fit, not a confirmed value.
biological target: Lysine-specific demethylase 4A (Homo sapiens) (UniProt O75164); experiment: qHTS Assay for Inhibitors of JMJD2A-Tudor Domain; conditions: AlphaScreen JMJD2A-Tudor / H3K4me3 peptide binding; series mostly up to 114 µM; note: nearly all actives have a fitted effect of over 50% in size
Chain of UniProt O75164 (O75164 whole entry, looked up, the tested form may be a part): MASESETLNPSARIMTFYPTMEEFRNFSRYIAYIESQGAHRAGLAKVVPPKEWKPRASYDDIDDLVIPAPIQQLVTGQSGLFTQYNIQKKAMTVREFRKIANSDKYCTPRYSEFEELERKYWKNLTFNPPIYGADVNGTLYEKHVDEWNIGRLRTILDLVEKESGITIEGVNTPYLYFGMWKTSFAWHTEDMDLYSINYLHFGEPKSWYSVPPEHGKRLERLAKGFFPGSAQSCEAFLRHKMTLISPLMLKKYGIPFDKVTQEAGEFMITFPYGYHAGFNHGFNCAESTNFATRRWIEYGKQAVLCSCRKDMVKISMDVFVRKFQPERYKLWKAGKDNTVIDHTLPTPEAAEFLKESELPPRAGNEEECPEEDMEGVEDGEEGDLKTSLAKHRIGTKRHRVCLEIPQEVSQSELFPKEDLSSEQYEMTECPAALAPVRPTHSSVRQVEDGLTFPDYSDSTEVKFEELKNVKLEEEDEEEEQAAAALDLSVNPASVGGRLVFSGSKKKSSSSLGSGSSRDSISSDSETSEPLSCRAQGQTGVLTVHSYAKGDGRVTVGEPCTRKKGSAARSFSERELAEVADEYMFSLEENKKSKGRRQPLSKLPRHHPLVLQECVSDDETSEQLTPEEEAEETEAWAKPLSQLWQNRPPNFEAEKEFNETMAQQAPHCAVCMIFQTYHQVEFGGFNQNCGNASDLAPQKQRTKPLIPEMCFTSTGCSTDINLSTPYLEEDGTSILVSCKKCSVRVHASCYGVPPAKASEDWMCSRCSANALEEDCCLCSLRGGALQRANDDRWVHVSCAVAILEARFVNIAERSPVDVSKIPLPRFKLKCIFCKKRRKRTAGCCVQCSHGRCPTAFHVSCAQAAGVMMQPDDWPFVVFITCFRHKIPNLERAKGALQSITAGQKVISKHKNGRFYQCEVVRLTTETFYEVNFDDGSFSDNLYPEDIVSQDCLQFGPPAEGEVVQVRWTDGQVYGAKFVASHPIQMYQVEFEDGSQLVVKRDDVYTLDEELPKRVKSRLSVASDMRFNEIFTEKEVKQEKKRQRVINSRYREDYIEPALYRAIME
Text: JMJD2A is a jumonji-domain-containing lysine demethylase that uses Fe(II) together with 2-OG to effect oxidative demethylation of histones. Methylation is one of many […] modification that affect epigenetic transcription. […] It is proposed that the functions of JmjD2A binding to the histones, is to maintain marks after they are installed and to spread the modifications by […], establishing a self-propagating cycle for rapid methylation over a large area of chromatin. […] Thus, small molecule targeting of the JMJD2A-tudor domain interaction with its target methylhistone mark is expected to enable sophisticated experiments probing the fine regulatory pathways leading to selective demethylation of a given methyllysine locus based on the methylation state of adjacent histone marks. A quantitative high throughput AlphaScreen has been developed to identify small molecule inhibitors based on a protocol published by NCGC and SGC [4].
Although AlphaScreen has significant advantages with its utility in a variety of epigenetic target assays, the primary screening data provided in this deposition should be used with caution due to the prevalence of screening artifacts. The top compound concentration tested was high (>100uM) in this assay, which increases number of actives and potential artifacts. An AlphaScreen counterscreen is highly recommended to be run against any putative actives to eliminate non-specific artifacts. Alternatively, one can use other AlphaScreen assays in PubChem to filter out promiscuous hits.
[1] Lee, J. et al. Distinct binding modes specify the recognition of methylated histone H3K4 and H4K20 by JMJD2A-tudor. Nat Struct Mol Biol. 15(1); 109-11. 2008. PMID: 18084306
[2] Yasgar, et al. Compound Management for Quantitative High-Throughput Screening. JALA. 2008 Apr;13(2):79-89. PMID: 18496600
[3] Inglese, et al. Quantitative high-throughput screening: a titration-based approach that efficiently identifies biological activities in large chemical libraries. Proc Natl Acad Sci. 1;103(31):11473-8. 2006. PMID: 16864780
[4] Quinn et al. A homogeneous method for investigation of methyl-dependent protein-protein interactions in epigenetics. Nucleic Acids Res., 38(2):e11. 2010. PMID: […]
[5] Baell,Holloway. New substructure filters for removal of pan assay interference compounds (PAINS) from screening libraries and for their exclusion in bioassays. J Med Chem. 53(7):2719-40. 2010. PMID: 20131845
NIH Molecular Libraries Probe Production Network [MLPCN]
NIH Chemical Genomics Center [NCGC]
Structural Genomics Consortium (SGC)
To each well of a 1,536w plate, 2ul of JMJD2A-Tudor (final 100nM) and 1ul biotinylated histone peptide methylated at Lys4 [b-H3(1-18)K4me3] (final 50nM) were added in 1x PBS buffer, pH 7.4, containing 0.01% Tween-20, using a nanoliter dispenser. Formation of a protein-peptide complex proceeded at room temperature for 30 min. A Kalypsys pin-tool transferred 23nl of library compound solution in DMSO to each well. Following a 30 min incubation of the protein-peptide complex with compounds at room temperature, a mixture of 40 µg/mL each streptavidin-coated donor and nickel chelate acceptor AlphaScreen beads (final 10 µg/mL) was added in a 1ul dispense for a final volume of 4ul, followed by a brief centrifugation (1000 rpm, 1 min). Plates were incubated protected from the light for 20 min at room temperature. Microplates were then read on an EnVision multilabel plate reader using the 1,536 plate HTS AlphaScreen aperture (excitation time 80 ms, measurement time 240 ms).
Potency is the fitted concentration of half-maximal effect; tags give direction and shape of the fitted curve.

| Compound | Potency |
| --- | --- |
| CCOC(=O)c1sc(N2C(=O)C(O)=C(C(=O)c3ccc(C)o3)C2c2cccc([N+](=O)[O-])c2)nc1C (centres undefined) | inconclusive: 50.1 µM [inhibitor, partial curve] |
| COc1cc(/C=C2\C(=N)N3N=C(S(C)(=O)=O)SC3=NC2=O)cc(OC)c1OCCOc1ccc(C)cc1 | inconclusive: 31.6 µM [inhibitor, full curve] |
| O=C(O)COc1ccccc1/C=N/NC(=O)CSc1nnc(SCc2cccc3ccccc23)s1 | inconclusive: 44.7 µM [inhibitor, partial curve] |
| COc1cc(/C=C2\C(=N)N3N=C(S(C)(=O)=O)SC3=NC2=O)cc(OC)c1OCCOc1cccc(C)c1 | inconclusive: 56.2 µM [inhibitor, partial curve] |
| Cc1cc(N2C(=O)C(O)=C(C(=O)c3cc4ccccc4o3)C2c2ccc(Cl)cc2)no1 (centres undefined) | inconclusive: 56.2 µM [inhibitor, partial curve] |
| Cc1cc(C)cc(-n2cccc2/C=C2/C(=N)N3C(=NC2=O)SN=C3S(C)(=O)=O)c1 | inconclusive: 28.2 µM [inhibitor, partial curve] |
| Cc1cc(N2C(=O)C(O)=C(C(=O)c3cc4ccccc4o3)C2c2cccc(Br)c2)no1 (centres undefined) | inconclusive: 28.2 µM [inhibitor, partial curve] |
| COc1cc(/C=N/Nc2ccc(Cl)c(C(=O)O)c2)ccc1OC(=O)c1ccc(F)cc1 | inconclusive: 44.7 µM [inhibitor, partial curve] |
| CCOc1cc(/C=C2/C(=N)N3C(=NC2=O)SN=C3S(C)(=O)=O)ccc1OS(=O)(=O)c1ccccc1 | inconclusive: 39.8 µM [inhibitor, partial curve] |
